# Where “and” joins values, the source holds several entries; their conditions need not be identical. Equal values may be shown once. The shares of active, inactive and inconclusive entries below differ from those in the screen. A potency beside an inconclusive call is a rough fit, not a confirmed value. Calls of active or inactive are those of the source. The call rests on the fitted dose curve; in most records, active means well fitted cell-killing curve with a large enough effect in the repeat runs; inconclusive means weak or mixed curves, or effect the other way; inactive means no such curve, though single readings can be large or run the other way.
# Assay: qHTS assay to identify small molecule antagonists of the progesterone receptor (PR) signaling pathway - cell viability counter screen (AID 1346798); further: nearly all actives have a fitted effect of over 50% in size
# Details: PR-UAS-bla HEK293T viability, CellTiter-Glo luminescence, 16 h; series mostly up to 92.4 µM
# In short: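 Counter screen for cytotoxicity: viability of PR-UAS-bla HEK293T cells was measured with CellTiter-Glo luminescence following 16 hr compound exposure in the presence of R5020.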
# Potency means the concentration at half of the fitted maximal effect; tags describe the fitted curve by direction and shape.
row,SMILES,Potency
1,Clc1ccc(C(Cn2ccnc2)OCc2c(Cl)cccc2Cl)c(Cl)c1 (configuration not stated),active: 5.96 µM
2,O=C(Oc1cccc2cccnc12)c1ccccc1,active: 4.22 µM
3,CN(C[C@@H](CC[N+]12CCC(C3CCCCC3)(CC1)CC2)c1ccc(Cl)c(Cl)c1)C(=O)c1cc(C(F)(F)F)cc(C(F)(F)F)c1,active: 27.3 µM
4,CCOC(=O)C1=C(C)NC(C)=C(C(=O)OCC)C1c1ccccc1/C=C/C(=O)OC(C)(C)C,"inconclusive: 21.1 µM [cytotoxic, single point]"
5,CCCCCCOC(=O)c1ccc(O)cc1,"inconclusive: 27.3 µM [rising, partial curve]"
6,CCCC(=O)c1cc(O)c(O)cc1O,inconclusive: 19.3 µM [cytotoxic]
7,CCCCCCCCCOC(=O)c1ccc(O)cc1,"inconclusive: 75.9 µM [cytotoxic, single point]"
8,CCCCCCCCCCCCN(CCO)CCO,"inconclusive: 76.6 µM [cytotoxic, partial curve, poor fit]"
9,CCCCCCCCCCOCC(O)CN (configuration not stated),"inconclusive: 33.5 µM [cytotoxic, single point]"
10,N#Cc1nc(Cl)c(Cl)c(Cl)c1Cl,active: 24.3 µM
11,CCCCCCCCOC(=O)c1cc(O)c(O)c(O)c1,"inconclusive: 77 µM [cytotoxic, single point]"
12,CC/C(=C(\c1ccc(O)cc1)c1ccc(OCCN(C)C)cc1)c1ccccc1,active: 27.4 µM
13,CCCCCCOc1cc(C)c(O)c(C)c1C,"inconclusive: 69.4 µM [cytotoxic, single point]"
14,CCCCCCCCCCCCCCCCCC[N+](C)(C)Cc1ccccc1,active: 27.6 µM
15,CN[C@H]1CC[C@@H](c2ccc(Cl)c(Cl)c2)c2ccc(S(N)(=O)=O)cc21,active: 48.6 µM
16,CCCCC(CC)COC(=O)c1ccc(O)cc1 (configuration not stated),"inconclusive: 27.2 µM [rising, partial curve]"

row,SMILES,Potency
1,CCN=c1cc2oc3cc(NCC)c(C)cc3c(-c3ccccc3C(=O)OCC)c-2cc1C,"inconclusive: 68.3 µM [cytotoxic, single point] and active: 61.1 µM"
2,CN(C)CCCN1c2ccccc2CCc2ccc(Cl)cc21,active: 34.4 µM and active: 29.8 µM
3,Cc1cc(O)c(C(C)C)cc1Cl,"inconclusive: 0.969 µM [cytotoxic, full curve, poor fit]"
4,CCCCCCCCCCCCCCCCCC[N+](C)(C)C,active: 48.7 µM
5,CCOC(=O)O[C@H](C)OC(=O)c1ccc2c(c1)cc(C(=O)NC1CCN(C(C)C)CC1)n2Cc1cc(-c2ccc(Cl)s2)on1,active: 22.7 µM
6,C=C1C(CCl)(CCl)C2(Cl)C(Cl)C(Cl)C1(Cl)C2(Cl)Cl (configuration not stated),active: 67.8 µM
7,CS(=O)(=O)CCNCc1ccc(-c2ccc3ncnc(Nc4ccc(OCc5cccc(F)c5)c(Cl)c4)c3c2)o1,active: 18.8 µM
8,C#CC1(O)CC[C@H]2[C@@H]3CCC4=CCCC[C@@H]4[C@H]3CC[C@@]21C (some centres not stated),"inconclusive: 68.6 µM [cytotoxic, single point] and inconclusive: 33.5 µM [cytotoxic, single point]"
9,CCc1cc(Cc2cc(CC)cc(C(C)(C)C)c2O)c(O)c(C(C)(C)C)c1,active: 38.6 µM
10,CC1=C(C(=O)OC(C)C)C(c2cccc([N+](=O)[O-])c2)C(C(=O)OC2CN(C(c3ccccc3)c3ccccc3)C2)=C(N)N1 (configuration not stated),"inconclusive: 23.7 µM [cytotoxic, single point]"
11,CCc1cc(SCc2sc(-c3ccc(C(F)(F)F)cc3)nc2CN2CCN(c3ccc(OC)cc3)CC2)ccc1OCC(=O)O,active: 4.86 µM
12,CC(C)(c1cc(Br)c(OCCO)c(Br)c1)c1cc(Br)c(OCCO)c(Br)c1,active: 29.9 µM
13,CCCCCCCC/C=C/CCCCCCCC1=NCCN1CCO,"inconclusive: 38.6 µM [cytotoxic, partial curve]"
14,CN(C)CCOc1ccc(/C(=C(/CCCl)c2ccccc2)c2ccccc2)cc1,active: 51 µM
15,N/C(=N\N=C\c1ccc(Cl)cc1)N/N=C/c1ccc(Cl)cc1,active: 29.8 µM
16,Cc1oc(-c2ccccc2)nc1CCOc1ccc(C[C@H](Nc2ccccc2C(=O)c2ccccc2)C(=O)O)cc1,"inconclusive: 34.4 µM [cytotoxic, single point]"

# Source: PubChem BioAssay (Tox21)
